# Measurements reported in the supplement of paper PMC3334620.
# The full ranking holds about 33,000 sequences; the median of “E-score (-0.5 to 0.5)” is about -0.035, and the highest 2% start at about 0.34. This is one part of the list.
# Biological target: T1, Mot3 (UniProt P54785)
# T1 sequence: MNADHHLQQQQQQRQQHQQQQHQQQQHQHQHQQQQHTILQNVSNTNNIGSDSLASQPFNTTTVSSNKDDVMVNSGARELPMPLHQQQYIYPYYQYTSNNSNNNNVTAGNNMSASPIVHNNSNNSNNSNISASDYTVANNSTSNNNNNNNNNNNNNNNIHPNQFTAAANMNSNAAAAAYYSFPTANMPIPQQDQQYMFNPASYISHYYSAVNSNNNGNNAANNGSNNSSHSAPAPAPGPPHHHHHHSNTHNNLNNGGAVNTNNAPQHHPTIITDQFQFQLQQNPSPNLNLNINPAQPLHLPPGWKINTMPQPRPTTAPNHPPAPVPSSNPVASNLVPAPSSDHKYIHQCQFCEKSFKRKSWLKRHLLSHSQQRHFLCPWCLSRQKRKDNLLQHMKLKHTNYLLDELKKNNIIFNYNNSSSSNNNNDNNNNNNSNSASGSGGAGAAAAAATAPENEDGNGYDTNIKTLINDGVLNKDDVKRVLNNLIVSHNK
# Test: PBM E-score (8-mer binding enrichment) (E-score (-0.5 to 0.5)); higher = stronger / more preferred TF binding; most listed sequences are background and not binding sites
# Conditions: protein concentration: 200 nM; construct: GST-full length
# Summary of the method: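 GST-tagged yeast TFs (full-length or DNA-binding domain) were made by PURExpress in vitro transcription/translation and applied at about 100-200 nM to universal all-10-mer Agilent arrays. The arrays were made double-stranded by primer extension, on fresh or once-stripped slides. Bound protein was detected with fluorescent anti-GST, and scans were normalised with masliner. Each ungapped eight-base word, pooled with its reverse complement, received an E-score (modified Wilcoxon-Mann-Whitney statistic) from the Universal PBM Analysis Suite.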
row,Sequence,PBM E-score
1,GTATACTA,0.0853
2,CCCATGGG,-0.0565
3,AGGAAAAA,0.352
4,GCCGCAAA,-0.22
5,TATTAGAA,0.148
6,ACCCTAAA,-0.118
7,GCATGTAC,0.321
8,CTCGTAAG,0.047
9,CATAGCAA,0.0672
10,GGTGAGCA,-0.152
11,CACTTCTC,-0.162
12,ATTGCGAC,0.137
13,CCTTACTC,0.064
14,GCGGTGGA,-0.0759
15,AGGCGGAT,-0.0835
16,AGCTTATC,-0.286
17,CGAGTGCA,0.114
18,CTCCCGAG,-0.343
19,CGGCTGAG,-0.368
20,CAGTAAAC,0.00975
21,ACGTTAGC,0.0573
22,ATGTACTG,0.295
23,CCTAGGCA,0.459
24,ACAACGAC,0.0106
25,GAGGCCTC,-0.239

row,Sequence,PBM E-score
1,ATTAATAC,0.21
2,ACGGCTCC,-0.0289
3,CTCAGGTA,0.226
4,TGTTAAAA,0.343
5,CCTGAAGC,-0.0867
6,AAAAAGGA,0.145
7,ATATTAAA,0.184
8,CTTTACGA,0.139
9,CGGTACCA,-0.331
10,CGAAGTAG,-0.037
11,AAGTCCTG,-0.164
12,TAAGGTGA,-0.0657
13,ACGCAGGC,0.234
14,AGCCACCG,-0.36
15,CTAGGTCC,-0.291
16,GGGTGCCA,-0.367
17,TGCTCCCA,-0.0924
18,AATCTTTG,0.136
19,GCAGCTGA,-0.0519
20,CTACAAAA,0.06
21,AGGTAAAA,0.303
22,TTGTACAA,0.3
23,GCGACAGA,-0.224
24,GAACACCC,-0.123
25,ACCTGGAC,-0.129

row,Sequence,PBM E-score
1,AGTAAAGA,0.121
2,AATTTATC,0.15
3,AAAACTAT,-0.0128
4,CAAGACAA,-0.0139
5,CTAGATAC,-0.0863
6,AATCGGAG,-0.197
7,CAAAACAG,0.0113
8,CTGGTACA,0.137
9,GGGGACTA,-0.103
10,GAAAGGCC,-0.0302
11,GGGAACCA,-0.175
12,ATGGTTTG,-0.13
13,GAAGTCGA,0.0161
14,GATTCCCC,-0.259
15,AACTGTTG,-0.108
16,GCTCTCAA,-0.101
17,AGCCAAGC,-0.237
18,ATAGCAGA,0.0946
19,AAGCCGCA,-0.198
20,AACCCGCA,-0.123
21,AGGCTTGG,-0.241
22,ACATAGTC,0.203
23,GAGTCGAC,-0.0875
24,ATAAATCG,-0.0995
25,AGAAAGTC,-0.0673

row,Sequence,PBM E-score
1,GACAAGCC,0.0255
2,ACCCTGCT,-0.153
3,CGTCGACA,0.0801
4,ACTCTCAG,-0.0221
5,CCATGAGC,-0.245
6,CTCCGAAC,-0.132
7,ATGTGTTG,0.317
8,CATACAAG,0.0233
9,GGAATTAA,0.113
10,GGTCAGAA,-0.131
11,CCGGAAAC,-0.134
12,ACTCAGCA,0.026
13,CTCGTCGC,-0.139
14,AGGTCAAA,0.0674
15,CTCCCAAC,-0.249
16,ATAGCGAG,-0.032
17,GACAGGGC,-0.0734
18,GACTGGGA,-0.123
19,CGAGTGAG,-0.143
20,GTCTTCGA,-0.186
21,ACCTGTGC,0.166
22,GGTTGCTA,-0.26
23,GCGTCATA,0.142
24,AGAACACT,0.0286
25,CTACCAAA,-0.0856

row,Sequence,PBM E-score
1,AAGAGTGA,0.115
2,TCTCCAGA,-0.178
3,AGTTAGCA,-0.0464
4,ACTATACG,0.0406
5,ATAGGCAC,0.491
6,AGCGGTAA,0.138
7,AATGCATA,0.00014
8,AATAAAGA,0.0295
9,ACAATAGG,0.145
10,ACCAGAGG,-0.00904
11,TCGTCTAA,-0.108
12,CCGGGATC,-0.21
13,GACTCCTC,-0.213
14,AGAGGCCA,-0.274
15,AGTGCGAG,-0.295
16,ATAGTCTG,-0.00799
17,CGTATCTC,-0.0845
18,ATCGTGGG,-0.0544
19,TGTCCCAA,-0.142
20,AGCCCGAT,-0.195
21,GAGCGAGC,-0.188
22,ATACGATG,0.143
23,AGGGCAAG,0.13
24,GCTTCGCA,-0.185
25,AACAGGGG,-0.0517

row,Sequence,PBM E-score
1,ACTTCAAG,0.103
2,ACTGTCTA,0.097
3,ACGTATGG,0.0794
4,CAAACCGA,-0.0256
5,GTGAAGGA,0.239
6,CACAGCCC,0.0336
7,ACGAAAAT,0.163
8,AAAAATTT,-0.0273
9,GCAAAGAA,0.0209
10,ATGAACAC,0.146
11,AGGGAGCG,-0.293
12,ATGCCTTC,0.36
13,AGCGGTTA,-0.136
14,CTGGTGTA,0.0826
15,CCATCTCG,-0.251
16,ACGATTGG,-0.0617
17,ATATTCAT,0.116
18,CATACCGG,-0.15
19,CCGTTGAC,-0.234
20,ACCGTCTC,0.0553
21,ATGTAAAA,0.415
22,CCTTTCCC,-0.0301
23,ACACCTAC,0.176
24,AAAGATCA,0.07
25,ATCAAGGA,0.216

row,Sequence,PBM E-score
1,ACCGACCA,0.108
2,ATTCATAC,0.048
3,AACCATCA,-0.0787
4,CTAAAAAA,0.0674
5,ATGAGTGC,-0.0961
6,ATGCAAAT,0.146
7,GATTTTAA,0.0698
8,ACAACAGG,0.287
9,ATGGATTG,0.0625
10,CTTATCAA,-0.00458
11,CTCTTATC,0.0302
12,CAAGGTAA,0.258
13,AAAATCAG,0.137
14,GGCTGGCA,-0.198
15,AGAGAAGC,-0.0484
16,AGTACTAC,0.121
17,GCTCTACA,0.197
18,CGCGGAAC,-0.151
19,GGCGACAA,-0.238
20,ACAGCCAA,0.051
21,CAGGGCGC,-0.199
22,TCAGTCAA,0.0421
